Test system: NCI-H322M
Assay: cells
Settings: 48 h
Protocol: The National Cancer Institute's Developmental Therapeutic preclinical 60 human cancer cell lines were used for an in vitro screen. […] The one-dose and five-dose experiments were conducted according to standard NCI protocols.
The human tumor cell lines of the cancer screening panel are grown in RPMI 1640 medium containing 5% fetal bovine serum and 2 mM L-glutamine. For a typical screening experiment, cells are inoculated into 96 well microtiter plates in 100 μL at plating densities ranging from 5,000 to 40,000 cells/well depending on the doubling time of individual cell lines. After cell inoculation, the microtiter plates are incubated at 37° C., 5% CO2, 95% air and 100% relative humidity for 24 h prior to addition of experimental drugs.
After 24 h, two plates of each cell line are fixed in situ with TCA, to represent a measurement of the cell population for each cell line at the time of drug addition (Tz). […]
Following drug addition, the plates are incubated for an additional 48 h at 37° C., 5% CO2, 95% air, and 100% relative humidity. […] Bound stain is subsequently solubilized with 10 mM trizma base, and the absorbance is read on an automated plate reader at a wavelength of 515 nm. […] Using the seven absorbance measurements [time zero, (Tz), control growth, (C), and test growth in the presence of drug at the five concentration levels (Ti)], the percentage growth is calculated at each of the drug concentrations levels. Percentage growth inhibition is calculated as: [(Ti−Tz)/(C−Tz)]×100 for concentrations for which Ti>/=Tz [(Ti−Tz)/Tz]×100 for concentrations for which Ti<Tz.
Three dose response parameters are calculated for each experimental agent. […] The drug concentration resulting in total growth inhibition (TGI) is calculated from Ti=Tz. […] Values are calculated for each of these three parameters if the level of activity is reached; however, if the effect is not reached or is exceeded, the value for that parameter is expressed as greater or less than the maximum or minimum concentration tested.

Work on `COc1ccc(SC2c3cc(OC)c(OC)cc3Oc3nc(N)c(C#N)c(N)c32)cc1` (stereo not drawn) [Compound 1, 2,4-diamino-7,8-dimethoxy-5-((4-methoxyphenyl)thio)-5H-chromeno[2,3-b]pyridine-3-carbonitrile] yielded a GI50 (Homo sapiens, NCI-H322M) of 1550 nM, a CC50 (Homo sapiens, NCI-H322M, read-out: LC50) of 5570 nM and a TGI (NCI-H322M (Non-small cell Lung), five-dose) of 2940 nM.

Reference: patent publication US11814392B2, “Chromenopyridine-based compounds and methods of making and use thereof” (Rosalind Franklin University of Medicine and Science, priority 2020, dated 2023)
